Experimental data: the RNAGym collection of RNA variant scans (doi:10.7554/elife.90254)
The source gives no read counts; variants with many changes may rest on few reads.

B1: LINE1-full (parent)
chain: UACGUAGGUGGUUUUCCCCUGAUAGUGCUAAGGGGGCCUGGAAGUUUGGACUGGGCAGAGCUCAACACAGCGUGGCAAAGUGGCUGUGGCUAGACUGCCUCUCUGGAUUCCUCGUCACUCAGCAGGGCAUCUCUGAGAGAAAUGCC

Variants of: B1
Assay: self-cleavage, relative activity (ratio to wild type); higher = more cleavage; in vitro, sequencing; the parent is a self-cleaving ribozyme
In the case of CACGUAGGUGGUUUUCCCCUGAUAGUGCUAAGGGGGCCUGGUAGUUUGGACUGGGCAGAGCUCAACACAGCGUGGCAAAGUGGCUGUGGCUAGACUGCCUCUCUGGAUUCCUCGUCACUCAGCAGGGCAUCUCUGAGAGGAAUGCC [U1C A42U A140G], the self-cleavage is reported as 0.24. CACGUAGGUGGUUUUCCCCUGAUAGUGCUGAGGGGGCCUGGAAGUUUGGACUGGGCAGAGCUCAACACAGCGUGGCAAAGUGGCUGUGGCUAGACAGCCUCUCUGGAUUCCUCGUCACUCAGCAGGGCAUCUCUGAGAGAAAUGCC [U1C A30G U96A] gave a self-cleavage of 0.27. With CACGUAGGUGGUUUUCCCCUGAUAGUGCUAAGGGGGCCUGGAGGUUUGGACGGGGCAGAGCUCAACACAGCGUGGCAAAGAGGCCGUGGCUAGACUGCCUCUCUGGAUUCCUCGUCACUCAGCAGGGCAUCUCUGAGAGAAAUGCC [U1C A43G U52G U81A U85C] the self-cleavage was 0. CACGUAGGUGGUUUUCCCCUGAUAGUGCUAAGGGGGCCUGGAAGUUUGGACUGGGCUGAGCUCAACACAGCGUGGCAAAGUGGCUGUGGCUAGACUGCCUCUCUGGAUUCCUCGUCACUCAGCAGUGCAUCUCUGAGAGAAAUGCU [U1C A57U G126U C146U] gave a self-cleavage of 0.03. CACGUAGGUGGUUUUCCCCUGAUAGUGCUACAGGGGCCUGGAAGUUUGGACUGGGCAGAGCUCAACACAGCGUGGCAAAGUGGCUGUGGCUAGACUGCCUCUCUGGAUUCCUCGUCACUCAGCAGGGCAUCUCUGAGAGUAAUGCC [U1C A31C G32A A140U] gave a self-cleavage of 0.71. With AACGUAGGUGGUUUUCCCCUGAUAGUGCUAAGGGGGCCUGGAAGUUUGGACUGGGCAGAGCUCAACACAGCGUGGCAAAGUGGCUGUGGCUAGACUGCCUCUCUGGAUUCCUCGUCACCCAGCAGGGCAUCUCAGAGAGAAAUGCC [U1A U119C U134A] the self-cleavage was 0.95. Variant CACGUAGGUGGUUUUCCCCUGGUAGUGCUAAGGGGGCCUGGAAGUUUGGACUGGGCAGAGCUCAACACAGCGCGGCAAAGUGGCUGUGGCUAGACUGCCUCUCUGGAUUCCUCGUCACUCAGCAGGGCAUCUCUGAGAGAAAUGCC [U1C A22G U73C] has a self-cleavage of 0.77. Variant CACGUAGGUGGUUUUCCCCUGAUAGUGCUAAGGGGGCCUGGAUGUUUGGACCGGGCAGAGCUCAACACAGCGUGGCAAAGUGGCUGUGGCUAGACUGCCUCUCUGGAUUCCUCGUCACUCAGCAGGGCAUCUCUGAGAGAAAUGCC [U1C A43U U52C] has a self-cleavage of 0.89. Work on CGCGUAGGUGGGUUUCCCCUGAUAGUGCUAAGGGGGCCUGGAAGUUUGGACUGGGCAGAGCUCAACACAGCGUGGCAAAGUGGCUGUGGCUAGACUGCCUCUCUGGAUUCCUCGUCACUCAGCAGGGCAUCUCUGAGAGAAAUGCC [U1C A2G U12G] yielded a self-cleavage of 0. CACGUAGGUGGUUUUCCCCUGAUAGUGCUAAGGGGGCCUGGAAGUUUGGACUGGGCAGAGCUCGACACAGCGUGGCAAAGUGGCUGUGGCUAGACUGCCUCCCUGGAUUCCUCGUCACUCAGCAGGGCAUCUCUGAGAGAAGUGCC [U1C A64G U102C A142G] showed a self-cleavage of 0.07. CCCGUAGGUGGUUUUCCCCUGAUAGUGCUAAGGGGGCCUGGAGGUUUGGACUGGGCUGAGCUCAACACAGCGUGGCAAAGUGGCUGUGGCUAGACUGCCUCUCUGGAUUCCUCGUCACUCAGCAGGGCAUCUCCGAGGGAAAUGCC [U1C A2C A43G A57U U134C A138G] showed a self-cleavage of 0.43. Work on CACGUAGGUGGUUUUCCCCUGAUAGUGCUUAGGGGGCCUGGAAGUUUGGACUGGGCAGAGCACAACACAGCGUGGCAAAGUGGCUGUGGCUAGACUGCCUCUCUGGAUUCCUCGUCACUCAGCAGGGCAUCUCUGAGAGAAAUGCC [U1C A30U U62A] yielded a self-cleavage of 0.09. Work on CACGUAGGUGGUUUUCCCCUGAUAGUGCUAAGGGGGCCUGGAGGUUUGGACUGGGCAGAGCUCAACAUAGCGUGGCAAAGUGGCUGUGGCUAGACUGCCUCUCUGGAUUCCUCGUCACUCAGCAGGGCAUCUCUGAGAGAAAUGCC [U1C A43G C68U] yielded a self-cleavage of 0.09. In the case of CACGUGGGUGGUUUUCCCCUGAUAGUGCUAAGGGGGCCUGGAAGUUUGGACUGGGCAGAGCUCAGCACAGCGUGGCAAAGUGGCUGUGGCUAGACUGCCUCUCUGGAUUCCUCGUCACUCAGCAGGGCAUCUCUGAGAGAAAUGCC [U1C A6G A65G], the self-cleavage is reported as 0.23. Variant CACGUAGGUGGUUUUCCCCUGAUAGUGCUAAGGGGGCCUGGAAGUUUGGACUGGGCGGAGCUCAACACAGCGUGGCAAAGUGGCUGAGGCUAGACUGCCUCUCUGGAUUCCUCGUCACUCAGCAGGGCAUCUCUGAGAGAAAUGCC [U1C A57G U87A] has a self-cleavage of 0.06. Work on CACGUAGGUGGUUUUCCCCUGAUGGUGCUAAGGGGGCCUGGAAGUUUGGACUGGGCAGAGCUCAACGCAGCGUGGCAAAGUGGCUGUGGCUAGACUGCCUCUCUGGAUUCCUCGUCACUCAGCAGGGCAUCUCUGAGAGAAAUGCC [U1C A24G A67G] yielded a self-cleavage of 0.71. With CACGUAGGUGGUUUUCCCCUGAUAGUGCUAAGGGGGCCUGGGAGUUUGGACUGGGCAGAGCUCAACACAGCGUGGCAAAGUGGCUGUGGCUAGACUGCCUCUCUGGAUUCCCCGUCACUCAGCAGGGCAUCUCUGAGAGAAAUGCC [U1C A42G U112C] the self-cleavage was 1.11. With CACGUAGGUGGUUUUCCCCUGAUAGUGCUGAGGGGGCCUGGAAGUUAGGACUGGGCAGAGCUCGACACAGCGUGGCAAAGUGGCUGUGGCUAGACUGCCCCUCUGGAUUCCUCGUCACUCUGCAGGGCAUCUCUGAGAGAAAUGCC [U1C A30G U47A A64G U100C A121U] the self-cleavage was 0.84. Work on CACGUAGGUGGUUUUCCCCUGAUAGUGCUAAGGGGGCCUGGAAGUUUGGACUGGGCAGAGCUCGACACAGCGUGGCAAAGUGGCUGUGGCUAGACUGCCUCUCUGGAUUCCUCGUCACUCAGCAGGGCAUCCCUGAGAGAAAUGCC [U1C A64G U132C] yielded a self-cleavage of 0.25. CACGUUGGUGGUUUUCCCCUGAUAGUGCUAAGGGGGCCUGGAAGUUUGGACUGGGCAGAGCUCAGCACAGCGUGGCAAAGUGGCUGUGGCUAGACUGCCUCUCUGGAUUCCUCGUCGCUCUGCAGGGCAUCUCUGAGAGAAAUGCC [U1C A6U A65G A117G A121U] gave a self-cleavage of 0. Variant CACGUAGGUGGUUUUCCCCUGAUAGUGCUAAGGGGGCCUGGAGGUUCGGACUGGGCAGUGCUCAACACAGCGUGGCAAAGUGGCUGUGGCUAGACUGCCUCUCUGGAUUCCUCGUCACUCAGCAGGGCGUCUCUGAGAGAAAUGCC [U1C A43G U47C A59U A129G] has a self-cleavage of 0.84. With CGCGUAGGUGGUUUUCCCCUGAUAGAGCUAAGGGGGCCUGGAAGUUUGGACUGGGCAGAGCUCAACACAGCGUGGCAAAGUGGCUGUGGCUAGACUGCCUCUCUGGAUUCCUCGUCACUCAGCAGGGCAUCUCUGAGAGAAAAGCC [U1C A2G U26A U143A] the self-cleavage was 0.67. Work on CGCGUAGGUGGUUUUCCCCUGAUAGUGCUAAGGGGGCCUGGAAGUUUGGACUGGGCAGAGCUCAACACAGCGUGGCAAAGUGGCUGUGGCUAGACUGCCUCUCUGGAUUCCUCGUAACUCAGCAGGGCAUCUCUGAGAGAAGUGCC [U1C A2G C116A A142G] yielded a self-cleavage of 0.92. For CACGUAGGUGGUUUUCCCCUGAUGGUGCUAAGGGGGCCUGGAAGUUUGGACUGGGCAGAGCUCAACACAGCGUGGCAAAGUGGCUGUGGCUAGACUGCCCCUCUGGAUUCCUCGUCACUCAGCAGGGCAUCUCUGAGAGAAAUGCC [U1C A24G U100C], the self-cleavage was 0.2. CACGUAGGUGGUUUUCCCCUGGUAGUGCUAAGGGGGCCUGGAAGUUUGGUCUGGGCAGAGCUCAACACAGCGUGGCAAAGUGGCUGUGGCUAGACUGCCUCUCUGGAUUCCUCGUCACUCAGCAGGGCAUCUCUGAGAGGAGUGCC [U1C A22G A50U A140G A142G] showed a self-cleavage of 1.11. CACGUAGGUGGUUUUCCCCUGAUAGUGCUAAGGGGGCCUGGGGGUUUGGACUGGGCAGAGCUCAACACAGCGUGGCAAAGUGGCUGUGGCUAGACUGCCUCUCUGGAUUCCUCGUCACUCAGCAGGGCAUCUCUGAGAGAAAUGCC [U1C A42G A43G] gave a self-cleavage of 0.61. Variant AACGUAGGUGGUUUUCCCCUGAUAGUGCUAAGGGGGCCUGGAAGUUUGGACAGGGCAGAGCUCAACACAGCGUGGCAAAGUGGCUGUGGCUAGACUGCCUCCCUGGAUUCCUCGUCACUCAGCAGGGCAUCUCUGAGAGAAAUGCC [U1A U52A U102C] has a self-cleavage of 0.88. For CGCGUAGGUGGUUUUCCCCUGAUUGUGCUAAGGGGGCCUGGAAGUUUGGACUGGGCAGAGCUCAACACAGCGUGGCAAGGUGGCUGUGGCUAGACUGCCUCUCUGGAUUCCUCGUCACUCAGCAGGGCAUCUCUGAGAGAGAUGCC [U1C A2G A24U A79G A141G], the self-cleavage was 0.82. With CGCGUAGGUGGUUUUCCCCUGAUAGUGCUAAGGGGGCCUGGAAGUUUGGACUGGGCAGAGCUCAACACAGCGCGGCAAAGUGGCUGUGGCUAGACUGCCUCUCUGGAUUCCUCGUCACUCAGCAGGGCAUCUCUGAGAGAAAUGCC [U1C A2G U73C] the self-cleavage was 0. With CUCGUAGGUGGUUUUCCCCUGAUAGAGCUAAGGGGGCCUGGAAGUUUGGACUGGGCAGAGCUCAACACAGCGUGGCAAAGUGGCUGUGGCUAGACUGCCUCUCUGGAUUCCUCGUCACUCAGCAGGGCAUCUCUGAGAGAAAUGCC [U1C A2U U26A] the self-cleavage was 0.24. AACGUAGGUGGUUUUCCCCUGAUAGUGCUAAGGGGGCCUGGAAGUUUGGACUGGGCAGAGCUCAACACAGCGAGGCAAAGUGGCUGUGGCUAGACUGCCUCUCUGGAUUCCUCGUCACUCAGCAGGGCAUCUCUGAGGGAAAUGCC [U1A U73A A138G] gave a self-cleavage of 1.55. Variant AACGUAGGUGGUUUUCCCCUGAUAGUGCUAAGGGGGCCUGGAAGUUUGGACUGGGCAGAGCUCAACACAGCGUGGCAAAGUGGCUGUGGCUAGACUGCCUCUCAGGAUUCCUCGUCACUCAGCAGGGCGUCUCUGAGAGAAAUGCC [U1A U104A A129G] has a self-cleavage of 1.39. With AACGUAGGUGGUUUUCCCCUGAUAGUGCUAAGGGGGCCUGGAAGUUUGGACUGGGCAGAGCCCAACACAGCGUGGCAAAGUGGCUGAGGCUAGACUGCCUCUCCGGAUUCCUCGUCACUCAGCAGGGCGUCUCUGAGAGAAACGCC [U1A U62C U87A U104C A129G U143C] the self-cleavage was 0. CACGUAGGUGGUUUUCCCCUGAUAGUGCUAAGGGGGCCUGGACGUUUGGACAGGGCAGAGCUCAACACAGCGUGGCAAAGUGGCUGUGGCUAGACUGCCUCUCUGGAUUCCUCGUCACUCAGCAGGGCAUCGCUGAGAGAAAUGCC [U1C A43C U52A U132G] showed a self-cleavage of 1.22. With CGCGUAGGUGGUUUUCCCCUGAUAGUGCUAAGGGGGCCUGGAAGUUUGGACUGGGCUGAGCUCAACACAGCGUGGCAAAGAGGCUGUGGCUAGACUGCCUCUCUGGAUUCCUCGUCACUCAGCAGGGCAUCUCUGAGAGAAAUGCC [U1C A2G A57U U81A] the self-cleavage was 0.14. For CACGUAGGUGGUUUUCCCCUGAUAGUGCUAAGGGGGCCUGGGAGUUUGGACUGGGCAGAGCUCAAAACAGCAUGGCAAAGUGGCUGUGGCUAGACUGCCUCUCCGGAUUCCUCGUCACUCAGCGGGGCAUCUCUGAGAGAAAUGCC [U1C A42G C66A G72A U104C A124G], the self-cleavage was 0.04. AACGUAGGUGGUUUUCCCCUGAUAGUGCUAAGGGGGCCUGGAAGUUUGGACUGGGCAGAGCUCAACACAGCGUGGCAAAGUGGCUGUGGCUAGACUGCCUCUCUGGAUUCCUCGUCACUCAGCAGGGCAUCCCUGAGAGAAGUGCC [U1A U132C A142G] showed a self-cleavage of 1.26. With CACGUAGGUGGUUUUCCCCUGAUAGUGCUAAGGGGGCCUGGAUGUUUGGACUGGGCUGAGCUCAACACAGCGUGGCAAAGUGGCUGUGGCUAGACUGCCUCUCUGGAUUCCUCGUCACUCAGCAGGGCAUCUCUGAGAGAAAUACC [U1C A43U A57U G144A] the self-cleavage was 0.12. Variant CACGUAGGUGGUUUUCCCCUGGUAGUGCUAAGGGGGCCUGGAAGUUUGGACUGGGCAGAGCUCAACACAGCGUGGCAAAGUGGCUGUGGCUAGACCGCCUCUCUGGAUUCCUCGCCACUCAGCAGGGCAUCUCUGAGAGAAACGCC [U1C A22G U96C U115C U143C] has a self-cleavage of 0.
